# Source: PubChem BioAssay AID651820 (National Center for Advancing Translational Sciences (NCATS), 2012)
# The whole screen tested about 340,000 compounds, of which about 12,000 (3.5%) were called active. This list was built around the results that the source calls inconclusive (neither active nor inactive); the mix of calls is not that of the screen. The call rests on the fitted dose curve; in most records, active means well fitted inhibition curve with a large enough effect; inconclusive means small, poorly fitted or top-dose-only effect, or another doubt; inactive means no such curve, though single readings can be large or run the other way. No potency is given beside an inconclusive call; the fits are too rough.
# Experiment: qHTS Assay for Inhibitors of Hepatitis C Virus (HCV)
# Conditions: Huh7.5.1 HCVcc-Cre (HCVcc is cell-culture hepatitis C virus) infection, luciferase reporter, 44 h; activity change, negative = inhibition: at 41.8 µM (top of the series) unless noted
# Summary of the method: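 Compounds are dispensed onto cells plated 4 h earlier at 1,000 per well, with HCVcc-Cre virus (about 0.5 moi) added next. Following 44 h of culture, luminescent signal is measured for 15 sec after 15 min with substrate at room temperature.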
# On the % scale 0 is the no-effect control and ±100 the full control effect; potency means the concentration at half of the fitted maximal effect; tags describe the fitted curve by direction and shape.
SMILES,Potency,"activity change, negative = inhibition"
CCc1ccc(Nc2cc(=O)n(C3CCCCC3)c(=O)[nH]2)cc1,"inconclusive [inhibitor, single point]",–
O=C(C1CCCCC1)N1CCN(c2nc(-c3ccc(F)cc3)cs2)CC1,"inconclusive [inhibitor, partial curve]",–
CSCCC(NS(=O)(=O)c1ccccc1F)C(=O)NNC(=O)c1csc(N2CCOCC2)n1 (stereo not drawn),"inconclusive [inhibitor, single point]",–
CC(=O)Nc1ccc(NC(=O)CSc2ccc3nnc(-c4cccnc4)n3n2)cc1,–,inactive: 8.41%
COc1ccccc1NC(=O)N1CCC(NC(=O)C(Cc2ccccc2F)NC(C)=O)CC1 (stereo not drawn),–,inactive: -1.84%
COc1ccc(CCC(=O)NC2CCCc3ccccc32)cc1OC (stereo not drawn),"inconclusive [inhibitor, partial curve]",–
Cc1ccc(-c2csc(=Nc3cccnc3)n2CCCn2ccnc2)cc1C,"inconclusive [inhibitor, partial curve]",–
Cc1ccc(C)c(CN2CCC(CNC(=O)Nc3ccc(F)c(Cl)c3)CC2)c1,"inconclusive [inhibitor, single point]",–
CCOC(=O)N1CCN(C(=O)C2CCCN(S(=O)(=O)c3ccc(OCC)cc3)C2)CC1 (stereo not drawn),"inconclusive [inhibitor, partial curve]",–
COc1ccc(-n2nc3cc(C)c(NC(=S)NC(=O)c4ccccc4C)cc3n2)cc1,"inconclusive [inhibitor, full curve, poor fit]",–
Cc1ccc(O)c(C2=NNC(O)(C(F)(F)F)C2)c1 (stereo not drawn),active: 11.2 µM,–
CC(=O)Nc1c(Br)cc2c(c1Br)Cc1cc(Br)ccc1-2,"inconclusive [inhibitor, single point]",–
Cc1ccc(C(=O)OCC(=O)Nc2c(Cl)cc(S(N)(=O)=O)cc2Cl)o1,–,inactive: 6.68%
CC1CCCCC1NC(=O)CCCn1c(=S)[nH]c2ccccc2c1=O (stereo not drawn),"inconclusive [inhibitor, full curve, poor fit]",–
Cc1ccccc1C1CCCN(C(=O)c2cc(COc3c(F)cccc3F)on2)C1 (stereo not drawn),–,inactive: -25.2%
O=C(OCC(=O)N1CCc2ccccc21)c1ccccc1,"inconclusive [inhibitor, partial curve]",–
COC(=O)c1c(C)[nH]c(C(=O)C(C)OC(=O)c2cc(C)oc2C)c1C (stereo not drawn),"inconclusive [inhibitor, single point]",–
CC(=O)Nc1nc(-c2ccccc2)nc(-c2ccccc2OC(C)=O)n1,active: 2.82 µM,–
CCCNC(=O)c1sc2c(c1C(=O)Nc1ccccn1)CCCC2,active: 10 µM,–
Cc1ccc(-c2nn(-c3ccccc3)cc2/C=C(\C#N)c2cccc(C#N)c2)o1,"inconclusive [inhibitor, partial curve]",–
Cc1onc(-c2ccccc2)c1C(=O)Nc1ccccc1NC(=O)c1c(-c2ccccc2)noc1C,–,inactive: 2.97%
O=C(NN1C(=O)C2CC=C(Cl)CC2C1=O)c1ccncc1 (stereo not drawn),–,inactive: 18.3%
Cc1ccc(NC(=O)c2cnc(N3CCN(c4ccccn4)CC3)c3ccccc23)c(Br)c1,active: 7.08 µM,–

SMILES,Potency,"activity change, negative = inhibition"
CCOC(=O)c1c(C)n(CC(O)CN(CC)CC)c2cc(Br)c(OC)cc12 (stereo not drawn),"inconclusive [inhibitor, full curve, poor fit]",–
COc1ccc(-c2noc(-c3ccccc3C(=O)Nc3cccc(OC)c3)n2)cc1,"inconclusive [inhibitor, partial curve]",–
COC(=O)[C@@]1(Cc2ccccc2)[C@H]2C(=O)N(Cc3ccccc3)C(=O)[C@H]2[C@H]2CN(C)C(=NCc3ccccc3)N21,"inconclusive [inhibitor, single point]",–
CCN(CC)S(=O)(=O)c1ccc(-c2ccc(S(=O)(=O)N(CC)CC)cc2)cc1,"inconclusive [inhibitor, full curve, poor fit]",–
COc1cc(/C=N\NC(=O)c2ccc(-c3ccccc3)cc2)cc(Br)c1O,"inconclusive [inhibitor, single point]",–
O=C(Cc1csc(Nc2nc(=S)[nH]c3ccccc23)n1)N1CCN(c2cccc(C(F)(F)F)c2)CC1,active: 5.62 µM,–
COC(=O)c1cc2nc(-c3ccccc3)cc(C)n2n1,"inconclusive [inhibitor, single point]",–
CCOC(=O)C1=C(CNCCOc2ccc(OC)cc2)NC(=O)NC1c1ccc2c(c1)OCO2 (stereo not drawn),"inconclusive [inhibitor, single point]",–
C[C@H](NC(=O)N1CCn2c1nc1ccccc12)C(=O)NCc1ccc(F)cc1,–,inactive: 2.77%
O=C(c1cccc(NS(=O)(=O)c2ccc(F)c(F)c2)c1)N1CCN(C(c2ccccc2)c2ccccc2)CC1,"inconclusive [inhibitor, single point]",–
Cc1ccc(NC(=O)c2ccccc2F)cc1S(=O)(=O)N1CCCCCC1,"inconclusive [inhibitor, single point]",–
Cc1ccc(-n2nc3c(Cl)nnc(C)c3c2C)cc1,–,inactive: -0.282%
CCOc1ccccc1NC(=O)C1C2CCC3C(CCC21)C3(Cl)Cl (stereo not drawn),"inconclusive [inhibitor, single point]",–
CCN(CC)c1ccc(/C=C2\C(=O)c3ccc(C(=O)O)cc3C2=O)cc1,–,inactive: 22%
O=C(CN(Cc1ccc(Br)cc1)S(=O)(=O)c1ccccc1)NCC1CCCO1 (stereo not drawn),–,inactive: -10.6%
CC[n+]1ccc(/C=C/c2c[nH]c3ccccc23)cc1,active: 2.82 µM,–
COc1cc(NC(=O)COc2ccc(C)c(C)c2)ccc1NC(=O)c1ccco1,"inconclusive [inhibitor, full curve, poor fit]",–
CC1(C)CC(C(CC(=O)O)c2ccccc2)CCO1 (stereo not drawn),–,inactive: 13.3%
CC1CC(C)CN(S(=O)(=O)c2ccc(C(=O)NCc3ccc4c(c3)OCO4)cc2)C1 (stereo not drawn),"inconclusive [inhibitor, single point]",–
COc1ccc(CCNC(=O)CSCc2c(F)cccc2Cl)cc1OC,"inconclusive [inhibitor, single point]",–
COC(=O)c1cc(C)nc2c1c(C)nn2-c1ccccc1,"inconclusive [inhibitor, single point]",–
COc1ccc2nc(Nc3nc(C)c(CCC(C)C)c(=O)[nH]3)nc(C)c2c1,"inconclusive [inhibitor, full curve]",–
COc1ccc(C(=O)NC2CCCc3c2cnn3-c2cccc(C)c2C)c(OC)n1 (stereo not drawn),active: 2.24 µM,–

SMILES,Potency,"activity change, negative = inhibition"
COC(=O)c1ccccc1NC(=O)CN(C)Cc1ccccc1,"inconclusive [inhibitor, single point]",–
O=C(NC(Cc1c[nH]c2ccccc12)C(=O)N/N=C/c1ccc(Cl)cc1)c1cccs1 (stereo not drawn),"inconclusive [inhibitor, single point]",–
C[N+](C)(C)CC1CCCC(C[N+](C)(C)C)C1=O (stereo not drawn),active: 2.24 µM,–
Cc1cccc(N2CCN(C(=O)Cc3ccc(-n4c(=O)[nH]c5ccsc5c4=O)cc3)CC2)c1C,"inconclusive [inhibitor, single point]",–
C#CCNC(=O)C1=C[C@@H](c2ccc(C#C)cc2)C[C@@H](OCCCCO)O1,–,inactive: -26%
COC(=O)[C@]1(C)N[C@H](CN(C)S(=O)(=O)c2ccccc2)[C@@H]2C(=O)N(C)C(=O)[C@@H]21,–,inactive: 8.34%
CC(C)C1C(=O)CC(c2ccccc2)NC1c1ccccc1 (stereo not drawn),–,inactive: 5.12%
Cc1nn(-c2ccccc2)c2sc(-c3n[nH]c(=S)o3)cc12,"inconclusive [inhibitor, single point]",–
Cc1ccccc1C(=O)N1CCN(c2ccc(NC(=O)c3ccc4c(c3)OCCO4)cc2)CC1,active: 8.91 µM,–
Cn1c(CN2CCN(C(=O)COc3ccccc3)CC2)nc2cc([N+](=O)[O-])ccc21,"inconclusive [inhibitor, single point]",–
Cc1cc(C(F)F)n2nc(C(=O)Nc3ccccc3F)nc2n1,"inconclusive [inhibitor, single point]",–
CCC(=O)c1cn(Cc2ccccc2C#N)c2ccccc12,"inconclusive [inhibitor, single point]",–
CC(C)c1ccc(NC2=NCC(=O)N2Cc2cccs2)cc1,"inconclusive [inhibitor, single point]",–
CC1CCN(CCCCOc2ccc(C(C)(C)C)cc2)CC1,"inconclusive [inhibitor, single point]",–
CC1CCN(c2ccccc2NC(=S)NC(=O)C(C)(C)C)CC1,"inconclusive [inhibitor, partial curve]",–
CCC(CO)(C(=O)OC1CC2CCC(C1)N2C)c1ccccc1 (stereo not drawn),–,inactive: 15.7%
CCN1C(=O)Nc2cccc3cccc1c23,"inconclusive [inhibitor, single point]",–
CCOC(=O)/C(=C\C=C1/Sc2cc(OCC)c(OCC)cc2N1CC)C(C)=O,"inconclusive [inhibitor, full curve]",–
Cc1ccc(NC(=O)COc2coc(CN3CCc4ccccc43)cc2=O)c(C)c1,"inconclusive [inhibitor, partial curve]",–
Cc1cccc(NC(=S)NC2CC3CCCC(C2)N3Cc2ccccc2)c1C (stereo not drawn),"inconclusive [inhibitor, single point]",–
Cc1cc(C)c(S(=O)(=O)Nc2ccccc2C(=O)N2CCCC2)c(C)c1,–,inactive: 12.3%
COc1ccccc1NC(=S)N(Cc1ccco1)Cc1cc2cc(C)cc(C)c2[nH]c1=O,"inconclusive [inhibitor, single point]",–
